We go through 62 compounds from PubChem BioAssay (NCI).

Each structure is given as a SMILES string. Several values for one entry are separate records, joined by “and”; a condition that tells them apart may be missing. Equal values may be shown once.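 How tested: cells in 96-well plates exposed to compound for 48 hours at five concentrations. GI50 marks 50% less growth. TGI marks complete inhibition of growth.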 Bounds are passed on as bounds.

The subject of the assay is NCI-H322M lung. Briefly: inhibition of tumour cell growth, NCI panel, 48 h.
Compound `Cc1ccc2cccc(-c3cccc4ccccc34)c2n1` gave a TGI of 75.6 µM.
Compound `O=C(/C=C/c1ccc(O)c(O)c1)OCCc1ccc2ccccc2c1` had a TGI of 24.1 µM.
With `COC(=O)C(Cc1cn(C(C)n2cc(CC(NC(C)=O)C(=O)OC)c3ccccc32)c2ccccc12)NC(C)=O` (stereo not drawn), the TGI was greater than 100 µM.
`O=C1/C(=C\c2ccccc2)CN(C(=O)CCN2CCCCC2)C/C1=C/c1ccccc1` displayed a TGI of 7.64 µM.
On to `CO/N=C1\CC(NC(=O)C(F)(F)F)c2ccsc21` (stereo not drawn), for which the TGI was greater than 100 µM.
Regarding `O=C1c2cccc(Oc3ccccc3)c2C(=O)c2cccc(Oc3ccccc3)c21`, the GI50 was greater than 100 µM and the TGI was greater than 100 µM.
For the compound `Cc1nc(N)nc(CCC(=O)Nc2cccc(C(F)(F)F)c2)c1-c1ccc(Cl)cc1`, the TGI is greater than 100 µM.
`N#C/C(=C\c1cc(OCc2ccccc2)c(OCc2ccccc2)cn1)C(N)=O`: the TGI was greater than 100 µM.
Same read-out and setting: the same measure for `CN(C)c1ccc(/C=C(\NC(=O)c2ccccc2)C(=O)NC(CC(=O)O)C(=O)O)cc1` (stereo not drawn): greater than 100 µM.
`COc1nc2c(c(O)c(C)c(=O)n2OC2OCC(OC(C)=O)C(OC(C)=O)C2OC(C)=O)c(=O)n1C` (stereo not drawn) displayed a TGI greater than 100 µM.
Compound `NNC(=O)C(=O)N/N=C1/CCCC1C(=O)CCC(=O)Nc1ccc(Cl)cc1` (stereo not drawn) gave a TGI greater than 100 µM.
On to `Cc1ccc2c(c1)CN1c3ccc(C)cc3CN2C1c1ccccc1O`, for which the TGI is greater than 100 µM.
The compound `CC(Br)C(=O)NC(CO)C(=O)O` (stereo not drawn) came in with a TGI greater than 100 µM.
In the case of `CC(=O)O[C@H]1C(=O)[C@@]2(C)C([C@H](OC(=O)c3ccccc3)[C@]3(O)C[C@H](OC(=O)[C@H](O)[C@@H](NC(=O)c4ccccc4)c4ccccc4)C(C)=C1C3(C)C)[C@]1(OC(C)=O)CO[C@@H]1C[C@@H]2O` (stereo partly drawn), the GI50 was 0.0218 µM and the TGI is greater than 50 µM.
Compound `CCN(C)c1nc(N(C)CC)c2nc(N(C)CC)nc(N(C)CC)c2n1` yielded a TGI greater than 100 µM.
`CC1=CC2C3(C)C(C)(C(C)=CP3(=O)c3c(C(C)C)cc(C(C)C)cc3C(C)C)C1P2(=O)c1c(C(C)C)cc(C(C)C)cc1C(C)C` (stereo not drawn) had a TGI of 8.56 µM.
`Cc1ccccc1-c1nc2c(N)nc(N)nc2nc1N` yielded a TGI greater than 100 µM.
Consider `COc1cc2oc(-c3ccc(O)cc3)cc(=O)c2c(O)c1C1OC(CO)C(O)C(O)C1O` (stereo not drawn), for which the TGI was greater than 100 µM.
The same measure, in the same setting: the same measure for `Cc1c(C)n(-c2ccccc2)c2nc(S(C)=O)nc(S(C)=O)c12` (stereo not drawn): 31 µM; for `COc1ccc2ccc3oc(=O)c(C)cc3c2c1`: greater than 100 µM.
Turning to `CC(C)(CO)CNC(=O)c1ccc2[nH]c(O)c(N=Nc3ccc(S(N)(=O)=O)cc3)c2c1`, the GI50 is greater than 25 µM and the TGI was greater than 25 µM.
As to `O=C1C=CC2(O[C@H](c3ccccc3)[C@@H](c3ccccc3)O2)[C@H](Sc2ccccc2O)C1`, the TGI amounted to 14.4 µM.
As for `OCc1cc2c(cn1)[nH]c1ccc(NCc3ccccc3)cc12`, the TGI was greater than 100 µM.
Compound `O=C(CCc1cc(O)cc(O)c1)NCCc1cc(OCc2ccccc2)cc(OCc2ccccc2)c1` gave a TGI of 36.9 µM.
With `CN(C)c1nc(Oc2nc(N(C)C)nc(N(C)C)n2)nc(N(C)C)n1`, the TGI is greater than 100 µM.
`COC(=O)/C=C(/C=C1/C(C#N)=C(N)N(c2ccc(Cl)cc2)C1(C)/C(=C\C(=O)OC)C(=O)OC)C(=O)OC` (stereo not drawn) showed a TGI greater than 100 µM.
The same measure, in the same setting: the result for `CCc1c(O)cc(=O)oc1-c1ccc(OC)c(OC)c1` reads greater than 100 µM; that for `CN(/N=C1\C(=O)Nc2ccccc21)c1ccccc1`, greater than 100 µM; that for `CC1=NN(C(=O)Cc2ccccc2)C(=O)/C1=C\c1ccc(O)cc1`, greater than 100 µM.
Same read-out and setting: the same measure for `NS(=O)(=O)c1nnc(NC(=O)N(c2ccccc2)c2ccccc2)s1`: 71.8 µM.
The compound `O=[N+]([O-])c1ccc(C[P+]2(c3ccccc3)CCCCC2)cc1` returned a TGI greater than 100 µM.
`O=C(OCc1ccc2c(Br)cc(Br)c(O)c2n1)c1cc2ccccc2[nH]1`: the GI50 was 1.61 µM and the TGI came to 3.24 µM.
Consider `COC(=O)C1C(C(=O)OC)C2C(=O)C3C(C(=O)OC)C(C(=O)OC)C3C(=O)C12` (stereo not drawn), for which the TGI is greater than 100 µM.
On the same count and under the same terms, the same measure for `COCOc1ccc(C(=O)Oc2cccc3c2OC(C)(C)O3)c(OCOC)c1`: greater than 100 µM.
On to `CCc1ccccc1NC(=O)c1cccc([N+](=O)[O-])c1O`, for which the TGI came to 85.6 µM.
`CC(C)Oc1cccc(N2C(n3ccnc3)=Nc3ccncc3S2(=O)=O)c1`: the TGI came to 32 µM.
On to `Cn1c([N+](=O)[O-])cnc1C=C1C(=O)c2ccccc2C1=O`, for which the GI50 was 19.4 µM and the TGI was determined as 72.2 µM.
Compound `CN(O)C(=O)/C=C/c1ccc(OCc2cccc(Cl)c2)cc1` yielded a TGI of 66.6 µM.
The compound `CC(=O)O[C@@H](c1nccn1Cc1ccccc1)[C@H]1OC(C)(C)O[C@@H]1[C@H]1COC(C)(C)O1` registered a TGI greater than 100 µM.
As to `O=C(CC(NC(=O)C(F)(F)F)C(=O)O)OCc1ccccc1` (stereo not drawn), the TGI was greater than 100 µM.
As for `CCCCI(O)OS(=O)(=O)c1ccc(C)cc1`, the TGI is greater than 100 µM.
In turn, `Cc1nc2ccc(Cl)cc2c(-n2ccnc2)c1CCn1ccnc1` gave a TGI greater than 100 µM.
`Nc1ncc(Cc2ccc3c(c2)OCO3)c(N)n1`: the TGI is greater than 100 µM.
The compound `Cn1c2ccccc2n2c3ncccc3c(=O)c(C#N)c12` showed a TGI greater than 100 µM.
Regarding `CC1(C)CC(=O)C2=C(C1)C(c1ccccc1Cl)C1C(=O)CC(C)(C)CC1(O)O2` (stereo not drawn), the TGI was greater than 100 µM.
`CCOC(=O)c1nc(C)oc1C(F)(F)F` gave a TGI greater than 100 µM.
The compound `O=C(ON=C1c2ccccc2C(Br)C(Br)c2ccccc21)c1ccccc1` (stereo not drawn) yielded a TGI of 30 µM.
For the compound `Cc1cc([N+](=O)[O-])c(C)c2c1[nH]c1ccc(Cl)cc12`, the TGI is greater than 100 µM.
`O=C(Nc1ccc(N=C=S)cc1Cl)c1cc(Br)cc(Br)c1O` returned a TGI of 61 µM.
As for `Cc1ccc(S(=O)(=O)OCC/C(=C\[Si](C)(C)C)c2ccccc2)cc1`, the TGI is greater than 100 µM.
Same read-out and setting: the same measure for `CC(=O)Nc1nc(Cl)cc(NCC2(CO)CCC2)n1`: greater than 100 µM; for `Cc1nc2ccccc2nc1CC(=O)C(=O)Nc1ccc(Cl)cc1Cl`: greater than 100 µM.
On to `O=C1/C(=C/c2ccc(Cl)c(Cl)c2)CN(C(=O)CCN2CCC(=NO)CC2)C/C1=C\c1ccc(Cl)c(Cl)c1`, for which the GI50 was 1.66 µM and the TGI is 3.77 µM.
`COC(=O)CNC(=O)C(CSC(=O)OCC1c2ccccc2-c2ccccc21)NC(=O)CCC(NC(=O)OCC1c2ccccc2-c2ccccc21)C(=O)OC` (stereo not drawn): the TGI worked out at 67.9 µM.
`O=C(c1ccco1)N(C(=O)N1CCCCC1)c1ccccc1` registered a TGI greater than 100 µM.
Regarding `CN(C)CCCC1(c2ccc(F)cc2)OCc2cc(-c3cccc4[nH]ccc34)ccc21` (stereo not drawn), the GI50 was 1.63 µM and the TGI amounted to 3 µM.
On to `N#CC1c2ccccc2C=CN1C(=O)CCCl` (stereo not drawn), for which the GI50 is 18.3 µM and the TGI came out at 35.5 µM.
As to `Nc1nc2c(c3cnccc13)C(c1ccc(Cl)c(Cl)c1)Cc1cnccc1-2` (stereo not drawn), the GI50 is 1.31 µM and the TGI was determined as 18 µM.
In the case of `CN(C)CCNC(=O)c1cccc2c1Nc1ccccc1S2`, the TGI amounted to 27.8 µM.
For `Cc1c2ccnc(C(N)=O)c2c(C)c2c1[nH]c1ccccc12`, the GI50 is 4.9 µM; the TGI was 35.8 µM and 27.1 µM.
As for `COc1cc2c(N3CCN(C(=O)Nc4ccc(OC(C)C)cc4)CC3)ncnc2cc1OCCCN1CCCCC1`, the GI50 was 30.8 µM and the TGI was greater than 100 µM.
With `O=C(COc1ccc(OCC(=O)N/N=C/c2ccc(-c3ccc(Cl)cc3Cl)o2)c(Cl)c1)N/N=C/c1ccc(-c2ccc(Cl)cc2Cl)o1`, the TGI is greater than 100 µM.
